# Results taken from the supplement of paper PMC11417369.
# This is one part of the list.
# System: PfSIP2 AP2 domain 1 (GST-tagged)
# Assay: gcPBM binding intensity (ln(normalized median fluorescence intensity)); higher = stronger DNA binding
# Procedure, shortened: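 Alexa488 anti-GST antibody, scanned at 488 nm, detected GST-tagged P. falciparum DNA-binding domains that had been expressed in E. coli and incubated for 1 h on an Agilent 4 × 180k array. The array carried primer-extended double-stranded 36-bp intergenic genomic probes and negative controls. Binding intensity is the highest Masliner-normalised natural-log median intensity across replicate spots of either orientation of each probe.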
row,Sequence,gcPBM binding intensity (ln)
1,TGTAAATTTGGCATCACACATAAATAAACATATAAA [CACACA_site4497],7.02
2,AAAAGAAATATTTATACACACACACTAACATATATA [CACACA_site8580],6.94
3,GTGAAAAAAAACATATGTACTTATACACTAATCTAT [XGTACX_site7600],7.2
4,TTATATATAATTACATGTACGTAGTATTATTTAAAT [XGTACX_site3418],7.18
5,TTATCATTTTAATGGTGTACTCAATAAAAACTTTAA [XGTACX_site4595],6.97
6,ATGTCTATAATAAGAACACACATATATTTAATTTAA [CACACA_site7394],6.92
7,TGGTAAAGGAGCAAGATGATAAATCTCCATAACTTT [CACACA_negctrl_site492],6.7
8,CTATATTCGTTTAATAGTACATATATAACTAGACAA [XGTACX_site5770],7.19
9,GTTGGTACCTTACTTTTACACACTTTTTTTTTTTTT [CACACA_site8441],6.89
10,TATATATATATGTATACACACATACAAATATGTAAA [CACACA_site9238],8.7
11,TGTTAATTAAAGGACTGTACACTAATAATTCTATAA [XGTACX_site5195],7.03
12,TCATATGTTTCATGTTGTACATTGAAAGTTTGGCTA [XGTACX_site3202],6.84
13,GTTCTAATATATTGCACACGTAAAAATATAGGTAAT [CACACA_site886],7.42
14,AAATATGTACATATTATATATATATAATATATATTG [TGCATGCA_negctrl_site438],7.02
15,AAAAAAAAAATATATATATATATATATATATAATTT [GTGCAC_negctrl_site32],7.7
16,AATAAATATAGATTCACACACAAACATATATAAATA [CACACA_site7814],6.88
17,AAGAAAAAAATTTATACAAGAATTTTTTATTATTAA [TGCATGCA_negctrl_site587],6.81
18,TAATTGTACGCCAATACACACAGAATTAGAATGTAG [CACACA_site102],7.57
19,ATAAATAAATGGTGTTGTACTCTATTATATATATAT [XGTACX_site7835],8.66

row,Sequence,gcPBM binding intensity (ln)
1,ATTCACTAAAAAATTGCATGCAATAAATTTTTTTTT [TGCATGCA_site962],6.52
2,TTTTATTGTTGTTATACACACCATATAAAATATTTC [CACACA_site4983],6.94
3,AATTGATTTATATATTGTACATATAAATTTATGTAT [XGTACX_site7785],6.84
4,ATATTTATCTTTTTATGTACATATGCCCCTTTTCTG [XGTACX_site673],7.39
5,AAGAAAATTAAATTAACACACATAAATATATATATA [CACACA_site1664],8.96
6,GAGTTATTTCTTATTTAAGCATTCTACATATATATA [CACACA_negctrl_site239],7.2
7,ATTTTACATATTTGCACACATATATTTAAATACATA [CACACA_site4627],7.27
8,GTCCTTATGGATGATAAATTATTTTAAATATTCTAT [XGTACX_negctrl_site200],6.76
9,TCTTGGTTATTAAAAAAAAAAAAATATATTTTTCCT [TGCATGCA_negctrl_site445],6.83
10,GGGAAAATAAATAAAGTGCAGATATTAAAAGTTGTA,8.04
11,TTGCATATTTCTAATTGTACATTATTTTATTTTATA [XGTACX_site8451],6.96
12,AATAAAAAATATATGAGTACTAAATTGTTTTCTTAA [XGTACX_site8573],6.83
13,CTCAACGATAGAGAAACATGCAAGTATAAGCAACTA [TGCATGCA_site771],6.8
14,AAAAAAATAACAAAATGTATACAATATAACAAAAAT [GTGCAC_negctrl_site512],7.13
15,AACATATACCCAGGTACATGCAAATATATATATTAT [TGCATGCA_site878],6.95
16,TTCTTTCTTCAAAAGTGTACCAAATGTTAGAAAGGT [XGTACX_site4353],7.65
17,TTTAAAAATTAATTCTGTACACATTTTTATTTTATT [XGTACX_site8],7.07
18,ATATATATATATATGTGTACACAACAAAATAAAAAA [XGTACX_site7378],9.19
19,TTTATTTATTATTAAAGTACTAAATCATATTATTAT [XGTACX_site992],6.88

row,Sequence,gcPBM binding intensity (ln)
1,TTTTCTTTTTTCTGTTGTACTAAAAATAATTTTGTA [XGTACX_site5171],6.98
2,CCACTAATAAATATTACACACATATATATATATATT [CACACA_site3128],7.37
3,TATTTATATATTATGTGTCCACATGTAAGCTATCTT [XGTACX_site3887],6.87
4,TATACATTATCTTATGCATGCGCATCTGCATATAAA [TGCATGCA_site266],7
5,ATTCATTTCTATTTTACACACAATAAGTAACTTAAT [CACACA_site2850],7.24
6,CTCATCCTTACATACACACACATATATATATATATA [CACACA_site103],9.67
7,ATATTTAAATCGAAGGTGCGTATTTCCTTTTTTTTT [GTGCAC_site9632],9.41
8,ATATATACATATAACACACACATATATATATATATA [CACACA_site2575],9.25
9,AGTATAAATAAATCATAAACATATATATATATATAT [GTGCAC_negctrl_site356],9.25
10,TCCTTAAAAATCTAAAAAGAAAAAAACATATATTTT [GTGCAC_negctrl_site123],6.72
11,TATACCTATAAATACACACACATATATAAATATGTA [CACACA_site6625],7.02
12,ATTATTATATATATAACACACATAATTATATACTTA [CACACA_site1563],7.21
13,AAATAAAAACCATATCGTACAAAAATTTTTGTATTT [XGTACX_site7497],6.86
14,ATATATATATATATATGTACTTAAAAATTTGTTTTG [XGTACX_site1514],9.1
15,AAGTCAATTTTTTTTTTTTTTTTTTAACTTATTAAT [TGCATGCA_negctrl_site14],6.56
16,GATCACTGAATAAAGGCACACATCTGACTAATTTTT [CACACA_site66],6.83
17,AATGTATATAATATTAATATGTAAATATATAATCAA [CACACA_negctrl_site1683],6.74
18,TTAAAAAGTGCGTAGTGTACTAATATAAATAATACA [XGTACX_site2922],7.74
